Assay results taken from PubChem BioAssay AID588591 (National Center for Advancing Translational Sciences (NCATS), 2011).
Several values for one entry are separate records, joined by “and”; a condition that tells them apart may be missing. Identical values can stand only once. Out of some 390,000 compounds screened, about 4,700 (1.2%) were called active. Inconclusive means that the source gave no clear call. Such entries were picked first, then a sample of the others. The call rests on the fitted dose curve; in most records, active means well fitted inhibition curve with a large enough effect; inconclusive means small, poorly fitted or top-dose-only effect, or another doubt; inactive means no such curve, though single readings can be large or run the other way. Potencies beside an inconclusive call are fits to weak or partial responses and may not hold up.

The compounds below were run against DNA polymerase eta (Homo sapiens) (UniProt Q9Y253) (assay: qHTS for Inhibitors of Polymerase Eta). Conditions: recombinant Pol eta, fluorescent DNA replication assay; series mostly up to 114 µM.
In short: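 Fluorescent replication assay: 50 nM final substrate added after a 15 min room-temperature compound preincubation with 10 nM enzyme. Signal taken at 0 min and again at 10 min.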
Potency means the concentration at half of the fitted maximal effect; tags describe the fitted curve by direction and shape.

Chain of UniProt Q9Y253 (Q9Y253 whole entry, looked up): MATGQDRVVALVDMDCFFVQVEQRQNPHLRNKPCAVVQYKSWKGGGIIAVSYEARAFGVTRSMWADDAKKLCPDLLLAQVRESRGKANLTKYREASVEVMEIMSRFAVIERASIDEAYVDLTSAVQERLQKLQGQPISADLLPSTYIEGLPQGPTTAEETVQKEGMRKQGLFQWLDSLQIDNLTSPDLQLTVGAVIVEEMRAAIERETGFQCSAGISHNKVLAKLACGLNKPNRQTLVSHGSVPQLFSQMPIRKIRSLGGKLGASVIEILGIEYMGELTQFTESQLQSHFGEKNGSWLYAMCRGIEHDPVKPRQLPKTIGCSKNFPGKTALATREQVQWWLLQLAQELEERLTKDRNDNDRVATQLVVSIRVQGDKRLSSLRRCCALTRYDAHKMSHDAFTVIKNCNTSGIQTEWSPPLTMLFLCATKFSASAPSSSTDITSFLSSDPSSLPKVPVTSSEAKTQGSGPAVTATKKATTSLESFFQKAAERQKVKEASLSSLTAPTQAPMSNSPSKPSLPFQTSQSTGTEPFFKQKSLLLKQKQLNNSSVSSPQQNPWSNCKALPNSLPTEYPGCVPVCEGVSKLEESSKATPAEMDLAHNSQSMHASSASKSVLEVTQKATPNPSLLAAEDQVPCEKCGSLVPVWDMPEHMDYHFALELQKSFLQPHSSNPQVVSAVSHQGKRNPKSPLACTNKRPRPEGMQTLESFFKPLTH

| Compound | Potency |
| --- | --- |
| O=C1c2ccccc2-c2n[nH]c3cccc1c23 | inactive and inconclusive: 22.4 µM [inhibitor, partial curve] |
| COc1ccc(S(=O)(=O)N2CCOC2CNC(=O)C(=O)NCc2ccc3c(c2)OCO3)cc1 (configuration not stated) | inactive |
| CSC1=C(C#N)C(=O)NC(c2ccccc2O)S1 (configuration not stated) | inactive |
| C=CCC[C@@H](Cc1ccc(F)cc1)C(=O)OC[C@H](Cc1c[nH]c2ccccc12)NC(=O)[C@@H](CC=C)CC(=O)N(CCO)Cc1ccccc1 | inconclusive: 79.4 µM [inhibitor, partial curve, poor fit] |
| Cc1nnc(SCC(=O)N/N=C/c2cc(Cl)c(O)c(Cl)c2)s1 | inconclusive: 17.8 µM [inhibitor, partial curve, poor fit] |
| O=C(/C=C/c1ccc(-c2ccccc2[N+](=O)[O-])o1)c1ccco1 | active: 39.8 µM |
| O=C(N/N=C/c1ccc(Cl)cc1)c1nc2ccc([N+](=O)[O-])cc2c(=O)[nH]1 | inconclusive: 56.2 µM [inhibitor, partial curve] |
| CSc1nsc2nc(=O)c(/C=C3\C(C)=Nc4ccc(C)cc43)c(N)n12 | inconclusive: 28.2 µM [inhibitor, full curve] |
| O=C(NN=C1CCCC1)c1[nH]c2ccc(Cl)cc2c1-c1ccccc1 | inconclusive: 79.4 µM [inhibitor, partial curve, poor fit] |
| COc1ccc2c(CC(=O)Nc3ccccc3OC)coc2c1 | inactive |
| COc1ccccc1CNC(=O)COC(=O)C1CCN(c2ccc(C(F)(F)F)cn2)CC1 | inconclusive: 89.1 µM [inhibitor, partial curve, poor fit] |
| O=C(Nc1ccc(Cl)cc1)N1CCN(c2ccc3nnc(-c4ccc(F)cc4)n3n2)CC1 | inconclusive: 28.2 µM [inhibitor, partial curve, poor fit] |
| CCOC(=O)c1sc2nc(-c3ccco3)c3c(c2c1N)CC(C)(C)OC3 | inconclusive: 14.1 µM [inhibitor, partial curve, poor fit] |
| Oc1ccccc1C1=Nc2ncnn2C(c2ccc(F)cc2)C1 (configuration not stated) | inconclusive: 17.8 µM [inhibitor, partial curve] |
| C#CCSc1nc2sc3c(c2c(=O)n1C)CCC3 | active: 20 µM |
| CCSc1nnc(NC(=O)CSc2sc3c(O)cc(=O)[nH]c3c2C#N)s1 | active: 3.55 µM |
| CCOC(=O)c1c2c3c(cccc3n(C)c1=O)C(=O)c1ccccc1-2 | inconclusive: 20 µM [inhibitor, full curve, poor fit] |
| Cc1cc(F)ccc1S(=O)(=O)Nc1ccc(C(=O)N2CCCCC2)cc1 | inconclusive: 89.1 µM [inhibitor, partial curve, poor fit] |
| O=C(O)CN1C(=O)/C(=C/c2ccc(N3CCCCC3)o2)SC1=S | active: 50.1 µM |
| Cc1ccc(N=C2NC(=O)/C(=C/C=C/c3ccco3)S2)cc1C | active: 8.91 µM |
| O=C(CSc1nnc(-c2ccc3c(c2)OCO3)o1)Nc1ncc(C(F)(F)F)cc1Cl | inconclusive: 79.4 µM [inhibitor, partial curve, poor fit] |

| Compound | Potency |
| --- | --- |
| Cc1cccc(CCNC(=O)c2cccc3c2C(=O)N(C2CCCCC2)C3)c1 | inconclusive: 89.1 µM [inhibitor, partial curve, poor fit] |
| COc1ccc2sc(NC(=O)NC(=O)c3c(Cl)cccc3Cl)nc2c1 | inconclusive: 89.1 µM [inhibitor, single point] |
| COc1cccc(C(=O)/C=C/Nc2ccc(S(=O)(=O)Nc3cnc4ccccc4n3)cc2)c1 | active: 15.8 µM |
| O=C(OCC(=O)c1ccc(Cl)s1)c1cncc(Br)c1 | inconclusive: 50.1 µM [inhibitor, partial curve] |
| c1ccc(-c2nn3c(-c4ccco4)nnc3s2)nc1 | inconclusive: 12.6 µM [inhibitor, partial curve, poor fit] |
| CSc1ccc(OCC(=O)Nc2ccc(N3CCOCC3)c(Cl)c2)cc1 | inconclusive: 44.7 µM [inhibitor, partial curve, poor fit] |
| Cc1ccc2c(CC(=O)NCC(=O)Nc3c(C)cccc3C)coc2c1 | inconclusive: 20 µM [inhibitor, full curve, poor fit] |
| COc1ccc(NC(=O)CCn2c(=S)[nH]c3ccccc3c2=O)cc1Cl | active: 35.5 µM |
| Cc1cc(C(=O)O)ccc1N/C=C1\CCCC(C)C1=O (configuration not stated) | inactive |
| COc1cccc2c(SCC(=O)N/N=C/c3ccccc3)cc(C)nc12 | inconclusive: 28.2 µM [inhibitor, partial curve, poor fit] |
| CCCn1c(C)nc2c(c1=O)c1nc3ccccc3nc1n2CCC1=CCCCC1 | inactive |
| Cc1noc(C)c1CSCC(=O)OCC(=O)Nc1sccc1C#N | inconclusive: 8.91 µM [inhibitor, partial curve, poor fit] |
| CC(=O)Nc1ccc2c(COC(=O)CC3Sc4ccccc4NC3=O)cc(=O)oc2c1 (configuration not stated) | active: 20 µM |
| Oc1ccc(-c2csc(Nc3ccccn3)n2)cc1O | active: 17.8 µM |
| Cc1ccc(N2CC(C(=O)Nc3ccc(S(=O)(=O)Nc4nccs4)cc3)CC2=O)cc1C (configuration not stated) | inactive |
| COc1ccc(/C=N/NC(=O)c2nc(Cl)c(Cl)c(N)c2Cl)cc1COc1ccc(F)cc1F | inconclusive: 22.4 µM [inhibitor, partial curve, poor fit] |
| C/C(=C/c1ccccc1)C(=O)N1CCN(c2ccc(F)cc2)CC1 | inactive |
| Cc1nonc1NC(=O)CSc1nc(C23CC4CC(CC(C4)C2)C3)nc2ccccc12 | inconclusive: 50.1 µM [inhibitor, partial curve, poor fit] |
| CC(=O)Nc1nc(C)c(-c2csc(Nc3cccc(C(C)=O)c3)n2)s1 | inconclusive: 31.6 µM [inhibitor, single point] |
| Cc1ccc(C)c(NC(=O)c2ccc(CN3CC(=O)N4CCCCC4C3=O)cc2)c1 (configuration not stated) | inactive |
| CCOC(=O)C1=C(C)OC(N)=C(C#N)C1c1cc2ccccc2nc1N1CCCCC1 (configuration not stated) | inconclusive: 25.1 µM [inhibitor, partial curve, poor fit] |
